{
  "source": "PubChem BioAssay AID1347417",
  "about": "(National Center for Advancing Translational Sciences (NCATS), 2020)",
  "note": "Screen size: about 120,000 compounds; about 5,300 (4.4%) were called active. This list was built around the results that the source calls inconclusive (neither active nor inactive); the mix of calls is not that of the screen. The call rests on the fitted dose curve; in most records, active means well fitted inhibition curve with a large enough effect; inconclusive means small, poorly fitted or top-dose-only effect; inactive means no such curve, though single readings can be large or run the other way. A potency beside an inconclusive call is a rough fit, not a confirmed value. Potency means the concentration at half of the fitted maximal effect; tags describe the fitted curve by direction and shape.",
  "data": [
    {"assay": "qHTS Primary assay for Inhibitors of Plasmodium falciparum Dd2 growth in vitro; further: nearly all actives have a fitted effect of over 65% in size;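 on activity, negative = inhibition: plate controls were DMSO vehicle for no effect and reference drug for full effect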", "conditions": "P. falciparum Dd2 growth, SYBR Green, 72 h; activity, negative = inhibition: at 28.9 µM (top of the series) unless noted; series mostly up to 28.9 µM", "how_it_was_run": "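Infected erythrocytes (Dd2, 0.3% parasitemia, 2.5% hematocrit final) are added to compound in RPMI-1640/Albumax II medium, grown 72 h at 37C in low oxygen, then lysed with saponin/Triton-X containing SYBR Green and read by fluorescence.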", "values": [
      {"smiles": "O=C1CCC2(CCCO2)CCN1Cc1ccccc1", "note": "(stereo not drawn)", "Potency": "inconclusive: 0.112 µM [inhibitor, full curve, poor fit]"},
      {"smiles": "CCc1cccc(C)c1NC(=O)CN1C(=O)NC2(CCC(C)CC2)C1=O", "note": "(stereo not drawn)", "Potency": "inactive"},
      {"smiles": "COc1ccc(CNC(=O)[C@@H]2Cc3nc[nH]c3CN2Cc2ccc(OC)c3ccccc23)cc1", "Potency": "inconclusive: 15.8 µM [inhibitor, partial curve, poor fit]"},
      {"smiles": "O=C(NCc1nnc2ccc(-c3ccccc3)nn12)c1ccoc1", "Potency": "inconclusive: 0.355 µM [inhibitor, full curve]"},
      {"smiles": "O=C(c1ccc(F)cc1)N1CCCCCC1c1nnc(-c2ccccc2)o1", "note": "(stereo not drawn)", "Potency": "inconclusive: 10 µM [inhibitor, partial curve, poor fit]"},
      {"smiles": "COc1ccc(C(=O)NCc2nnc3c(-c4nc(C5CC5)no4)cccn23)c(C)c1", "Potency": "inconclusive: 0.224 µM [inhibitor, full curve]"},
      {"smiles": "O=C(Nc1ccc(Oc2ccccc2)cc1)O[C@@H]1CO[C@H]2[C@@H]1OC[C@@H]2NC(=O)c1ccc(C(F)(F)F)cc1", "Potency": "inactive"},
      {"smiles": "Cc1ccc(Cl)cc1NC(=O)N1CC(C(=O)N(C)C)C2(CCOCC2)C1", "note": "(stereo not drawn)", "Potency": "inactive"},
      {"smiles": "COc1cccc(N2CCN(C(=O)Cn3ncc4c3-c3ccccc3OC4)CC2)c1", "Potency": "inconclusive: 17.8 µM [inhibitor, single point]"},
      {"smiles": "COCCNc1c(-c2noc(C)c2C(=O)Nc2ccc(OC)cc2)cnn1C", "Potency": "inconclusive: 5.62 µM [inhibitor, single point]"},
      {"smiles": "CCOc1ccc(Nc2c(S(=O)(=O)c3ccccc3)cnc3ccc(CC)cc23)cc1", "Potency": "inconclusive: 17.8 µM [inhibitor, single point]"},
      {"smiles": "Cc1ccc(C(=O)c2cn(CC(=O)Nc3ccc4c(c3)OCCO4)c3nc(C)ccc3c2=O)cc1", "Potency": "inconclusive: 14.1 µM [inhibitor, single point]"},
      {"smiles": "Cc1ccc(Cn2c(C3CCN(C(=O)c4cc(C)cc(C)c4)CC3)n[nH]c2=O)cc1", "Potency": "active: 8.91 µM"},
      {"smiles": "CCCCCCn1c(/C=C/c2ccccc2)nc2ccccc21", "Potency": "inconclusive: 10 µM [inhibitor, single point]"},
      {"smiles": "O=C1CC(c2ccccc2)N(C(=O)CNC(=O)c2[nH]nc3c2COc2ccccc2-3)CCCCCN1", "note": "(stereo not drawn)", "Potency": "active: 2.51 µM"},
      {"smiles": "CC(C)NC[C@H]1Cn2c(-c3cccc(Cl)c3)cnc2CO1", "Potency": "inconclusive: 10 µM [inhibitor, partial curve, poor fit]"},
      {"smiles": "COc1ccc(CN2CCc3nc(N4CCOCC4)[nH]c(=O)c3CC2)cc1Br", "activity, negative = inhibition": "inactive: 9.8% [at 5.79 µM]"},
      {"smiles": "O=C(Cc1cccc(Cl)c1)N1CCc2nc(-c3ccccc3)nc(-c3ccc(Cl)cc3)c2C1", "Potency": "inconclusive: 2.82 µM [inhibitor, full curve]"}
    ]}
  ]
}
